Laboratory results from publication PMC10831045.
These are yes or no findings as the source states them, for the method shown. In cells and extracts the contact can be indirect. Some entries that bind do so weakly or less than the wild type.

Protein sequences, listed by entry. Tags and fused reporters are not part of them. Lines headed by an entry give the natural chain unless they say otherwise; changes in a name come on top.
UniProt P55087: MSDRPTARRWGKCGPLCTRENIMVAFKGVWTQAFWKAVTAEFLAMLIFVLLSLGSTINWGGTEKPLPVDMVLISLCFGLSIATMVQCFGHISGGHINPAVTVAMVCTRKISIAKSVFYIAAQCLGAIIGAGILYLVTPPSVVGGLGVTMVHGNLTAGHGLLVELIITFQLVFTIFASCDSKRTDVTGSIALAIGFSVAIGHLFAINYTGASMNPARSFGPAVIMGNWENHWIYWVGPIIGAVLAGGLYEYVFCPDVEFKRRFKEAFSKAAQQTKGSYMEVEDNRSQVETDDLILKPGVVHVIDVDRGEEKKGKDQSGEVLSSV
UniProt Q5S007: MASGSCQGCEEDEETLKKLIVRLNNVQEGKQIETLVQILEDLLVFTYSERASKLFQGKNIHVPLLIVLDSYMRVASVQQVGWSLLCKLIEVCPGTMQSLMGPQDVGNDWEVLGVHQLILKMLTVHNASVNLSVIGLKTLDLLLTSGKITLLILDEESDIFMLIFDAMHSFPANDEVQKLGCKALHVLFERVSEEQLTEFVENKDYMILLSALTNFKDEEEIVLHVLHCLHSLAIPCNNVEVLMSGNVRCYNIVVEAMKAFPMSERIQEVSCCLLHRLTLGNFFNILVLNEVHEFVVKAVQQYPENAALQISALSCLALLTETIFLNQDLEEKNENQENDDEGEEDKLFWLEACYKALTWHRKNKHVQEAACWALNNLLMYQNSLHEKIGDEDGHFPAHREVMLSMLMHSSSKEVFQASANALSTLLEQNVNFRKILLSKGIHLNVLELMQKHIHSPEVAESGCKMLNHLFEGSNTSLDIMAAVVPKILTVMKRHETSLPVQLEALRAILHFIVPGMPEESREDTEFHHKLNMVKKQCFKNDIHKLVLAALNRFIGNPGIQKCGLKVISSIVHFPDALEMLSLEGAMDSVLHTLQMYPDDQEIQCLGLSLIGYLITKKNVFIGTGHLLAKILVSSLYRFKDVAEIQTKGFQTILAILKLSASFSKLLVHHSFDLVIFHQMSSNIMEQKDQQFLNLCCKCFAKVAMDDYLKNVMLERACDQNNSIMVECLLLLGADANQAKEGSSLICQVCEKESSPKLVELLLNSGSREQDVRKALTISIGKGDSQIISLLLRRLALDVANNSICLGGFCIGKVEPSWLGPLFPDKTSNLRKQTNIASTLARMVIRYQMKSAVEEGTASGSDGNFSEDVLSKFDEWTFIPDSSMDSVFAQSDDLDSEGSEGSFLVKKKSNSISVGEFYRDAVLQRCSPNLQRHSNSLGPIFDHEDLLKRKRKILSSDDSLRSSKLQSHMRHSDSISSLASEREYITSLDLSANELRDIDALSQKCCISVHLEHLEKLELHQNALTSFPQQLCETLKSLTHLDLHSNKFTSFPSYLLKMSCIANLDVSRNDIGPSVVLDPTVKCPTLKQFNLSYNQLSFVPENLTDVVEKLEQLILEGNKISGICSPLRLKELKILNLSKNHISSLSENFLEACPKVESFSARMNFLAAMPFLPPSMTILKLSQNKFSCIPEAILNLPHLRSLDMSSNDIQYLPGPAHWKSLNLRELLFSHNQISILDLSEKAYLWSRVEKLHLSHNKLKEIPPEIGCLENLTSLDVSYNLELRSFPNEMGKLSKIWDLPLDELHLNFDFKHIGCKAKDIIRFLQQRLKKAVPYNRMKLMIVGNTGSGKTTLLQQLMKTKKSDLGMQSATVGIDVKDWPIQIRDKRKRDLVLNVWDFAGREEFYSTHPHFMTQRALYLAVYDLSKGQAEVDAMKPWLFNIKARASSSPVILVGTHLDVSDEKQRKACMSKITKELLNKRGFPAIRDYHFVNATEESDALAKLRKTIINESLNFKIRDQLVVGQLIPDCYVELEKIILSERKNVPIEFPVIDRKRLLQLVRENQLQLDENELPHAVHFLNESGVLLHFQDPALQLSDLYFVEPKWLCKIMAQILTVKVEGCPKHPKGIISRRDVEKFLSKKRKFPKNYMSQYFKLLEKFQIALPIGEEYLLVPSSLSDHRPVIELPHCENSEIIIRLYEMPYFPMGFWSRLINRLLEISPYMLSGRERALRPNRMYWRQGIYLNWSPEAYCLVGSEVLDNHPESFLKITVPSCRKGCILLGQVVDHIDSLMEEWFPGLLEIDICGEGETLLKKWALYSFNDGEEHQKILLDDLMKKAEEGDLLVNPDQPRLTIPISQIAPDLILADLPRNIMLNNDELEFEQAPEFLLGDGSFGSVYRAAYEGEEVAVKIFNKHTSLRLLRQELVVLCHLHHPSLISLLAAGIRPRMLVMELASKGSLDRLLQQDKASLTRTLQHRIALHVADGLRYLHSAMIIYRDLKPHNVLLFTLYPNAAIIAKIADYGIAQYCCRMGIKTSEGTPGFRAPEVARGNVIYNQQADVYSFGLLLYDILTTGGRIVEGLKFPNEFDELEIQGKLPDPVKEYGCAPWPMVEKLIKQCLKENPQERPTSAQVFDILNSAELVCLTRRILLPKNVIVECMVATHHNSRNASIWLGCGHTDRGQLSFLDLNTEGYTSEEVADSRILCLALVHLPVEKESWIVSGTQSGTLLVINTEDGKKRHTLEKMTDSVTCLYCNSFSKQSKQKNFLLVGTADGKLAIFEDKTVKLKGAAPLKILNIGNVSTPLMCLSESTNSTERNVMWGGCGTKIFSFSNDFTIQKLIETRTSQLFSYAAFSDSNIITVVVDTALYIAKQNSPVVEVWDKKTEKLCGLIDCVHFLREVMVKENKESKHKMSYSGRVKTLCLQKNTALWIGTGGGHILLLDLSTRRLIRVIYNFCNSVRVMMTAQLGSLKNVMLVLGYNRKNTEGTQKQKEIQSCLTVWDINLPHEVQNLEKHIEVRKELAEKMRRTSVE

What was measured:
HA-AQP4 = HA-AQP4 (UniProt P55087); test: co-IP; HeLa cell lysates co-transfected with FLAG-LRRK2 domains and HA-AQP4; co-IP by antibody to HA
FLAG-LRRK2 G2019S = FLAG-LRRK2 G2019S (UniProt Q5S007); test: co-IP; HeLa cell lysates co-transfected with FLAG-LRRK2 WT/G2019S and HA-AQP4 (with or without Mli-2); co-IP by antibody to LRRK2
FLAG-LRRK2 WT = FLAG-LRRK2 WT (UniProt Q5S007); test: as above

| binding (HA-AQP4) | binding (FLAG-LRRK2 G2019S) | binding (FLAG-LRRK2 WT) | Substance |
| --- | --- | --- | --- |
| binds |  |  | FLAG-LRRK2 COR domain (from UniProt Q5S007 1546-1740) (domain or fragment) |
| binds |  |  | FLAG-LRRK2 Kinase domain (from UniProt Q5S007 1879-2138) (domain or fragment) |
|  | binds | binds | HA-AQP4 (from UniProt P55087 1-323) |
| no binding |  |  | FLAG-LRRK2 ROC domain (from UniProt Q5S007 1328-1511) (domain or fragment) |
